Measurements reported in PMC3878200.
Substitutions are numbered along the chain they refer to. Results are given in words; binding and its absence hold for the method and conditions named. For some of these results: Binding seen in cells or lysates may run through a third protein. Some binding calls cover weakened binding; strength is not graded here. For some of these results: Tags and fused reporters may be left off the sequences shown. Each block holds one binder with its values, some of them ahead of it.

Columns and labels:
Flag-Plzf = molecular target: T1, Flag-Plzf (UniProt Q05516); assay: co-IP; COS-1 cells co-transfected with Flag-Plzf and EGFP-Znf179 constructs; lysate precipitated with anti-Flag antibody (mouse IgG as control), protein A-Sepharose; Western blot with anti-Znf179 or anti-EGFP and anti-Flag; lysis buffer 50 mM Tris-HCl pH 7.8, 150 mM NaCl, 15 mM EDTA, 0.5% Triton X-100, 0.5% NP-40, 0.1% deoxycholate
T1 sequence: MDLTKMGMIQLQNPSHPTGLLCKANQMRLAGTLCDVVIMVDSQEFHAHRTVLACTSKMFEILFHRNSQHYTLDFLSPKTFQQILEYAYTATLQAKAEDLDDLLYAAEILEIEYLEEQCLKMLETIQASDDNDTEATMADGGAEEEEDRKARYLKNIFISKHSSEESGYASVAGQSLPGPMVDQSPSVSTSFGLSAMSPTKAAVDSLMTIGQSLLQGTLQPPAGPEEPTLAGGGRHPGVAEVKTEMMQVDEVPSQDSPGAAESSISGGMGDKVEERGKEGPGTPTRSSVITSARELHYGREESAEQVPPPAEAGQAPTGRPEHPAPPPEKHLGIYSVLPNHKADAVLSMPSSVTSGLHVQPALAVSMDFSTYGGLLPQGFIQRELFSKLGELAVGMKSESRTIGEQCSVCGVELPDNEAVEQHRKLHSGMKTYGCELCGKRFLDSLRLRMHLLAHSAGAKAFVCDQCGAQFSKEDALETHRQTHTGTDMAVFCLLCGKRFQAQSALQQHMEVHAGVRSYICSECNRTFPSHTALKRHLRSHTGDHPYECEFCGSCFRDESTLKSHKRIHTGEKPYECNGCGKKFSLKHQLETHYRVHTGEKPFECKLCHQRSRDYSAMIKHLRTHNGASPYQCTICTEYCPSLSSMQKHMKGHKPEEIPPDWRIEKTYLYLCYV

[1] = molecular target: T2, LexA-Znf179 (1–417) (mouse) (UniProt Q96DY5); assay: two-hybrid; retest in yeast L40 of bait and prey plasmids; quantitative liquid β-galactosidase assay (o-nitrophenylgalactoside) and X-gal; LexA-lamin and Gal-AD alone as controls
T2 sequence: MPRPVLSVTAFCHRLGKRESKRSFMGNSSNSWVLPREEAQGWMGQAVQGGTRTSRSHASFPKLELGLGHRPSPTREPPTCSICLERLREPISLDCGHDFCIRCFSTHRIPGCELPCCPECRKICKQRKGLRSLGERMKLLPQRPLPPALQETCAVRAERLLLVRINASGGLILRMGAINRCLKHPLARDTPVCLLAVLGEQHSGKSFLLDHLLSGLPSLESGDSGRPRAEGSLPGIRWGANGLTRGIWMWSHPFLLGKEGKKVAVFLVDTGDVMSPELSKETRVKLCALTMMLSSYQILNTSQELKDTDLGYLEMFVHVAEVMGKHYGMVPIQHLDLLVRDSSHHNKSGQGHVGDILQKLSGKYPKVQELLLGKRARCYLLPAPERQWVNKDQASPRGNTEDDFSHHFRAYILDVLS

[2] = molecular target: T2, LexA-Znf179 (1–417) (mouse); assay: two-hybrid; LexA-based screen in yeast L40: LexA-Znf179 (1–417) bait against a mouse brain cDNA library (Gal4 AD); selection without His, Leu, Trp, then β-galactosidase colony lift filter assay
Flag-Plzf (180–673) = molecular target: T3, Flag-Plzf (180–673) (UniProt Q05516); assay: co-IP; COS-1 cells co-transfected with Flag-Plzf and EGFP-Znf179 constructs; lysate precipitated with anti-Flag antibody (mouse IgG as control), protein A-Sepharose; Western blot with anti-Znf179 or anti-EGFP and anti-Flag; lysis buffer 50 mM Tris-HCl pH 7.8, 150 mM NaCl, 15 mM EDTA, 0.5% Triton X-100, 0.5% NP-40, 0.1% deoxycholate
T3 sequence: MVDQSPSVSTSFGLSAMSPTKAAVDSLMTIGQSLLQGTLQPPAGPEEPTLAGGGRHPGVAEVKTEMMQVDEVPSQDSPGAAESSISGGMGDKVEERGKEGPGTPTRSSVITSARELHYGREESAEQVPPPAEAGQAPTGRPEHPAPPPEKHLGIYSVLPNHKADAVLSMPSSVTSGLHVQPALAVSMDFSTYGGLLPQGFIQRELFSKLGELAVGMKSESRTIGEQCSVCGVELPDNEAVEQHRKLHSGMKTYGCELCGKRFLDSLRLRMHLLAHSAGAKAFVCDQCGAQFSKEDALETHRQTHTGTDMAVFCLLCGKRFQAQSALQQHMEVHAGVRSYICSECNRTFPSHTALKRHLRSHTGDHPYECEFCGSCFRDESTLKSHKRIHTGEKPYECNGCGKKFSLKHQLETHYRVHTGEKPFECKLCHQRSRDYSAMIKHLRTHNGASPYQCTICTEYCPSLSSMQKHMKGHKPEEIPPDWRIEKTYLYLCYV

Flag-Plzf (455–673) = molecular target: T4, Flag-Plzf (455–673) (UniProt Q05516); assay: as above
T4 sequence: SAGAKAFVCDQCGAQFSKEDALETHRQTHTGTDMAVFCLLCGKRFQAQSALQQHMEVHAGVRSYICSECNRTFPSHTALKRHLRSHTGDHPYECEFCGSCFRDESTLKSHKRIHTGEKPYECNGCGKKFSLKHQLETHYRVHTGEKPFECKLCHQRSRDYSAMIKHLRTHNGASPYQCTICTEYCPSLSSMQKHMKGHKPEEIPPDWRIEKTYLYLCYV

Flag-Plzf (1–398) = molecular target: T5, Flag-Plzf (1–398) (UniProt Q05516); assay: as above
T5 sequence: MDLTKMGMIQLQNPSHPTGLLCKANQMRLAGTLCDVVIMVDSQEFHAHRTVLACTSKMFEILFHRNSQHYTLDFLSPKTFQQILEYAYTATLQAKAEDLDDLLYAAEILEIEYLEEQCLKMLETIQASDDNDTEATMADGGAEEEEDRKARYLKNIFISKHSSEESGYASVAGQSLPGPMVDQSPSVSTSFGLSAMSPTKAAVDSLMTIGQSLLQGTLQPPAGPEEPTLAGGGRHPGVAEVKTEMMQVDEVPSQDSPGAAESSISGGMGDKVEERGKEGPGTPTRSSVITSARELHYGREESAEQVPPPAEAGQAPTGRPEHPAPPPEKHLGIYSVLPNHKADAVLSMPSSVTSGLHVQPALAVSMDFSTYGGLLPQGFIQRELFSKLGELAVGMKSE

Flag-Plzf (398–673) = molecular target: T6, Flag-Plzf (398–673) (UniProt Q05516); assay: as above
T6 sequence: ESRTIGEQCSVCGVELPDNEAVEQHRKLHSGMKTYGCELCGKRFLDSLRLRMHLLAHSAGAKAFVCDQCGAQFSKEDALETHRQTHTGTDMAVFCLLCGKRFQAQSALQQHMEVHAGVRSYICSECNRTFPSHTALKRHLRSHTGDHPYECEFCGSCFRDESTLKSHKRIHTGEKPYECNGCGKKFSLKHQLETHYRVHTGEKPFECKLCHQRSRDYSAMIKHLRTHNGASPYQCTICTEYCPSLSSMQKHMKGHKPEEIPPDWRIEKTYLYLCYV

- binding [1]: binds
- binding [2]: binds
B2: Gal4-Plzf (180–673) (domain or fragment, UniProt Q3UQ17 180-673)
chain: MVDQSPSVSTSFGLSAMSPTKAAVDSLMSIGQSLLQGTLQPPAGPEEPTLAGGGRHPGVAEVKMEMMQVDEAPGQDSPGAAESSISGGMGDKLEERSKEGPGTPTRGSVITSARELHYGREESGEQLSPPVEAGQGPPGRQEPLAPPVEKHLGIYSVLPNHKADAVLSMPSSVTSGLHVQPALAVSMDFSTYGGLLPQGFIQRELFSKLGELAVGMKAESRPLGEQCSVCGVELPDNEAVEQHRKLHSGMKTYGCELCGKRFLDSLRLRMHLLAHSAGAKAFVCDQCGAQFSKEDALETHRQTHTGTDMAVFCLLCGKRFQAQSALQQHMEVHAGVRSYICSECNRTFPSHTALKRHLRSHTGDHPYECEFCGSCFRDESTLKSHKRIHTGEKPYECNGCGKKFSLKHQLETHYRVHTGEKPFECKLCHQRSRDYSAMIKHLRTHNGASPYQCTICTEYCPSLSSMQKHMKGHKPEEIPPDWRIEKTYLYLCYV

- binding [2]: binds
B5: Gal-AD-Plzf (398–673) (domain or fragment, UniProt Q3UQ17 398-673)
chain: T6 sequence with T4P, I5L

Second part, the binder before the results:

B1: EGFP-Znf179 (154–654) (domain or fragment, UniProt Q96DY5 154-654)
chain: AVRAERLLLVRINASGGLILRMGAINRCLKHPLARDTPVCLLAVLGEQHSGKSFLLDHLLSGLPSLESGDSGRPRAEGSLPGIRWGANGLTRGIWMWSHPFLLGKEGKKVAVFLVDTGDVMSPELSKETRVKLCALTMMLSSYQILNTSQELKDTDLGYLEMFVHVAEVMGKHYGMVPIQHLDLLVRDSSHHNKSGQGHVGDILQKLSGKYPKVQELLLGKRARCYLLPAPERQWVNKDQASPRGNTEDDFSHHFRAYILDVLSTAPQHAKSRCQGYWSEGRAVARGDRRLLTGQQLAQEIKNLSGWMGKTGPSFNSPDEMAAQLHDLRKVEAAKKEFEEYVRQQDIATKRIFSALRVLPDTMRNLLSTQKDAILARHGVALLCKEREQTLEALEAELQAEAKAFMDSYTMRFCGHLAAVGGAVGAGLMGLAGGVVGAGMAAAALAAEAGMVAAGAAVGATGAAVVGGGVGAGLAATVGCMEKEEDERVQGGDREPLLQEE
- binding (Flag-Plzf): binds

B3: EGFP-Znf179 (1–153) (domain or fragment, UniProt Q96DY5 1-153)
chain: MPRPVLSVTAFCHRLGKRESKRSFMGNSSNSWVLPREEAQGWMGQAVQGGTRTSRSHASFPKLELGLGHRPSPTREPPTCSICLERLREPISLDCGHDFCIRCFSTHRIPGCELPCCPECRKICKQRKGLRSLGERMKLLPQRPLPPALQETC
- binding (Flag-Plzf): no binding

B4: EGFP-Znf179 (protein, UniProt Q96DY5 1-654)
chain: MPRPVLSVTAFCHRLGKRESKRSFMGNSSNSWVLPREEAQGWMGQAVQGGTRTSRSHASFPKLELGLGHRPSPTREPPTCSICLERLREPISLDCGHDFCIRCFSTHRIPGCELPCCPECRKICKQRKGLRSLGERMKLLPQRPLPPALQETCAVRAERLLLVRINASGGLILRMGAINRCLKHPLARDTPVCLLAVLGEQHSGKSFLLDHLLSGLPSLESGDSGRPRAEGSLPGIRWGANGLTRGIWMWSHPFLLGKEGKKVAVFLVDTGDVMSPELSKETRVKLCALTMMLSSYQILNTSQELKDTDLGYLEMFVHVAEVMGKHYGMVPIQHLDLLVRDSSHHNKSGQGHVGDILQKLSGKYPKVQELLLGKRARCYLLPAPERQWVNKDQASPRGNTEDDFSHHFRAYILDVLSTAPQHAKSRCQGYWSEGRAVARGDRRLLTGQQLAQEIKNLSGWMGKTGPSFNSPDEMAAQLHDLRKVEAAKKEFEEYVRQQDIATKRIFSALRVLPDTMRNLLSTQKDAILARHGVALLCKEREQTLEALEAELQAEAKAFMDSYTMRFCGHLAAVGGAVGAGLMGLAGGVVGAGMAAAALAAEAGMVAAGAAVGATGAAVVGGGVGAGLAATVGCMEKEEDERVQGGDREPLLQEE
- binding (Flag-Plzf (180–673)): binds
- binding (Flag-Plzf (455–673)): no binding
- binding (Flag-Plzf): binds
- binding (Flag-Plzf (1–398)): no binding
- binding (Flag-Plzf (398–673)): binds
